This note sets out measurements from patent US8481551B2, “Gyrase and topoisomerase IV inhibitors” (Vertex Pharmaceuticals Incorporated, priority 2011, dated 2013).

This assay has as its system Haemophilus influenzae. Briefly: Gyrase MIC against Gram negatives, microdilution broth method (Protocol 2). Type of assay: cell-based. The settings on record: ATCC51907, Haemophilus influenzae (Rd1 KW20) ATCC 51907.

Structures can show the parent of a compound that is named as a salt.

The compound `CCNC(=O)Nc1nc2cc(-c3cnc(C(C)(C)O)nc3)cc([C@H]3CCCO3)c2[nH]1` [Compound 13, methanesulfonic acid salt of 1-ethyl-3-[5-[2-(1-hydroxy-1-methyl-ethyl)pyrimidin-5-yl]-7-[(2R)-tetrahydrofuran-2-yl]-1H-benzimidazol-2-yl]urea] gave an MIC of 2.5 µg/mL.

On to `CCNC(=O)Nc1nc2cc(-c3cnc(C(C)(C)O)nc3)c(F)c([C@H]3CCCO3)c2[nH]1` [Compound 23A, methanesulfonic acid salt of 1-ethyl-3-[6-fluoro-5-[2-(1-hydroxy-1-methyl-ethyl)pyrimidin-5-yl]-7-[(2R)-tetrahydrofuran-2-yl]-1H-benzimidazol-2-yl]urea], for which the MIC is 1.3 µg/mL.
